The supplement of paper PMC12645437, “Orthogonal IMiD-Degron Pairs Induce Selective Protein Degradation in Cells” (ACS Chemical Biology, 2025)
Some of the results follow.

Target: no compound (DMSO)
Test: log2 fold change of degron read counts, EGFP-low vs EGFP+ sorted cells; higher = lower degron-EGFP level without compound (poor expression or instability)
Conditions: compound: DMSO control; 18 h
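Note: jurkat cells carrying a lentiviral library of mutant zinc finger degrons fused to EGFP plus mCherry, mCherry+ cells FACS sorted, degron abundance counted by next-generation sequencing.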

| Sequence | log2 fold change of degron read counts |
| --- | --- |
| FKCEICGAYFTQKGNLLRHIKL | -2.4 |
| FQCNQCGRQFTQKGNLLRHIKL | -1.6 |
| LVCPICGFWCTQKGNLLRHIKL | 1.64 |
| LTCNQCGFPCTQKGNLLRHIKL | 0.0872 |
| FGCEQCGADFTQKGNLLRHIKL | -2.61 |
| FRCNQCGRNFTQKGNLLRHIKL | -0.165 |
| FQCEICGRTFTQKGNLLRHIKL | -2.44 |
| FKCPICGRIFTQKGNLLRHIKL | -0.822 |
| FHCEICGAVFTQKGNLLRHIKL | -1.15 |
| FRCEVCGACFTQKGNLLRHIKL | -1.59 |
| FYCPICGRWFTQKGNLLRHIKL | 0.264 |
| FSCNQCGRNFTQKGNLLRHIKL | -0.266 |
| FICDQCGAEFTQKGNLLRHIKL | -1.58 |
| FMCNICGAEFTQKGNLLRHIKL | -1.28 |
| FYCNQCGACFTQKGNLLRHIKL | -0.359 |
| LGCPICGFFCTQKGNLLRHIKL | 1.72 |

| Sequence | log2 fold change of degron read counts |
| --- | --- |
| FDCPICGHHFTQKGNLLRHIKL | -1.26 |
| FFCPVCGAIFTQKGNLLRHIKL | 0.48 |
| FQCPICGRRFTQKGNLLRHIKL | -0.789 |
| FRCNQCGRFFTQKGNLLRHIKL | 0.398 |
| FCCPQCGAMFTQKGNLLRHIKL | 0.231 |
| FNCNQCGHTFTQKGNLLRHIKL | -1.02 |
| FVCEVCGAWFTQKGNLLRHIKL | -0.924 |
| FFCNQCGHLFTQKGNLLRHIKL | 1.01 |
| LGCPICGFRCTQKGNLLRHIKL | 1.14 |
| FHCNICGALFTQKGNLLRHIKL | -0.177 |
| FMCPVCGAQFTQKGNLLRHIKL | -0.924 |
| LQCNQCGFNCTQKGNLLRHIKL | -0.0968 |
| FNCSVCGHEFTQKGNLLRHIKL | -1.68 |
| LYCEICGFWCTQKGNLLRHIKL | 0.8 |
| FICDQCGADFTQKGNLLRHIKL | -2.66 |
| FRCDQCGADFTQKGNLLRHIKL | -1.89 |
